In PMC4336329 (PLoS ONE, 2015):
About 14,000 (4.5%) of roughly 310,000 compounds showed an effect of 50% or more. The effect is printed as a negative number. The list shows a part of the results.

The molecules below were run against human ether-à-go-go-related gene (hERG) potassium channel (human, UniProt Q12809) (assay: primary screen, population patch clamp on CHO cells stably expressing hERG).
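Further: peak tail current of the secondary pulse compared with the same well before compound.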

Sequence of human ether-à-go-go-related gene (hERG) potassium channel (Q12809 whole entry, looked up): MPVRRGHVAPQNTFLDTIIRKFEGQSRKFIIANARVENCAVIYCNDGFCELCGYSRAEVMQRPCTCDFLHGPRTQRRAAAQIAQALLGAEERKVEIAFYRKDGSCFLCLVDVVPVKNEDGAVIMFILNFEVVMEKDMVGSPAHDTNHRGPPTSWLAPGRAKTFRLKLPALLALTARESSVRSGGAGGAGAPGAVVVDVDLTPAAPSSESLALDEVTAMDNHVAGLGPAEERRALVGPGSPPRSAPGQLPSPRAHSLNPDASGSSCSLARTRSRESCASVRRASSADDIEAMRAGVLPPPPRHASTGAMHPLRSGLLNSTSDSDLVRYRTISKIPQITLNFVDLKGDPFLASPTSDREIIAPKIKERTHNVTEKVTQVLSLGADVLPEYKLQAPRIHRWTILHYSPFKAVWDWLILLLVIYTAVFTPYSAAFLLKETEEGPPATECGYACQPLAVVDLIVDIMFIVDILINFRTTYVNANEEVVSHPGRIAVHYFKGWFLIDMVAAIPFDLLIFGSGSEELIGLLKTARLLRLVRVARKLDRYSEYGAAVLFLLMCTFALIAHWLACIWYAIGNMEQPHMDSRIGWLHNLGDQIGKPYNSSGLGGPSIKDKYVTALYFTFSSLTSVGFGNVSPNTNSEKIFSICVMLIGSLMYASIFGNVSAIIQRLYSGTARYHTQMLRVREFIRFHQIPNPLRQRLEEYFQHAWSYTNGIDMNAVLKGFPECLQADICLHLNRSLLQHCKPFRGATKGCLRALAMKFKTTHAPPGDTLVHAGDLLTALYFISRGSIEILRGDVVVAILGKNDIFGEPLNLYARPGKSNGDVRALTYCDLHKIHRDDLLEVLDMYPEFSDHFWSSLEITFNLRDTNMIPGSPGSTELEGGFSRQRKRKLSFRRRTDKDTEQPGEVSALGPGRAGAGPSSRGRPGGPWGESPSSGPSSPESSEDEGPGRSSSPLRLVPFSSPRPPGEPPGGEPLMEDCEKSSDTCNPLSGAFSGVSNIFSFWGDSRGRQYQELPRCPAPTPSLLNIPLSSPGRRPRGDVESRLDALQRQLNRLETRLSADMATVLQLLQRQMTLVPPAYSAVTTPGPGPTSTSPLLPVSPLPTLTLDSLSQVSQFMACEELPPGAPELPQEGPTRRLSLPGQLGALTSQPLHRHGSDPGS

Row | Compound | hERG current change (%, negative = inhibition) at 10uM
1 | Cn1c(=O)c2c(nc(OCc3cccnc3)n2Cc2c(F)cccc2Cl)n(C)c1=O | 1.03%
2 | O=C(NCCN1CCCC(O)C1)c1cc(COc2ccc(F)cc2Cl)on1 (centres unmarked) | -23%
3 | C=CCn1c(O)c(C2=c3ccccc3=NC2=O)sc1=Nc1ccc(O)cc1 | -13.4%
4 | CCc1ccc(NC(=O)Cn2nc(C)n3cccc3c2=O)cc1 | 15%
5 | COC(=O)c1cscc1S(=O)(=O)Cc1ccccc1 | 5.98%
6 | COc1cccc(N=Nc2c(N)[nH][nH]c2=O)c1 | 8.67%
7 | CCOc1ccc(C(=S)N2CCCC2)cc1OC | 20.1%
8 | Cc1noc(C(=O)Nc2ccc3c(c2)OCO3)c1Cl | -1.49%
9 | C=CCN(CC(=O)Nc1c(C)cccc1CC)C(=O)SCCC | 1.41%
10 | CCn1cc(CNC(=O)C2CCC(=O)N(Cc3ccc(Cl)cc3)C2)cn1 (centres unmarked) | -14.2%
11 | COc1ccc(-c2nc(CN3CCC(C(=O)N4CCOCC4)CC3)c(C)o2)cc1C | -6.98%
12 | CCC(CC)c1nc2cc(OC)c(OC)cc2c(=O)o1 | 18.2%
13 | O=C(O)C1CC(=O)N(c2ccc(Br)cc2)C1 (centres unmarked) | 4.94%
14 | COCCN=C1NN=C(c2ccc(NC(C)=O)cc2)CS1 | 8.57%
15 | CCN(CC)S(=O)(=O)c1ccc(N2CCOCC2)c(NC(=O)COc2ccccc2C#N)c1 | -3.3%
16 | Cc1ccc(NC(=O)c2sccc2SCc2cccc(C(F)(F)F)c2)cc1 | 25%
17 | Cc1ccc(N2C(=O)c3n[nH]c(C)c3C2c2ccco2)cc1 (centres unmarked) | -7.79%
18 | CNC(=S)NNC(=O)c1cccc(C(F)(F)F)c1 | 2.73%
19 | COP(=O)(OC)C(Nc1ccccc1)c1ccccc1 (centres unmarked) | 11.4%
20 | C(#CCN1CCOCC1)COCC#Cc1ccccc1.Cl | -2.16%
21 | O=C(c1ccc2c(c1)OCO2)N1CCN(S(=O)(=O)c2ccc(Br)cc2Cl)CC1 | -40.6%
22 | O=C(O)CCCC(=O)N1CCOCCOCCOCCOCC1 | 17.1%
23 | Cc1cc2ncn(/N=C/c3ccc4c(c3)OCO4)c2cc1C | 10.9%
24 | C=CCC(C(=O)OC)(C(=O)OC)c1ccc([N+](=O)[O-])cn1 | -9.74%
25 | O=C(NCCc1ccccc1)C1CCC(CNc2c(N3CCCCC3)c(=O)c2=O)CC1 (centres unmarked) | 18.6%
26 | COc1ccc(CCNC(=O)/C(C#N)=C/c2cccc(OCc3ccccc3)c2)cc1OC | -3.66%
